# Measurements from PMC4336329 (PLoS ONE, 2015).
# About 2,200 (0.71%) of roughly 310,000 compounds showed an effect of 50% or more. Effects have a minus sign here. The list shows a part of the results.
# Target: human ether-à-go-go-related gene (hERG) potassium channel (human, UniProt Q12809)
# Test: primary screen, population patch clamp on CHO cells stably expressing hERG
# Chain of human ether-à-go-go-related gene (hERG) potassium channel (Q12809 whole entry, looked up): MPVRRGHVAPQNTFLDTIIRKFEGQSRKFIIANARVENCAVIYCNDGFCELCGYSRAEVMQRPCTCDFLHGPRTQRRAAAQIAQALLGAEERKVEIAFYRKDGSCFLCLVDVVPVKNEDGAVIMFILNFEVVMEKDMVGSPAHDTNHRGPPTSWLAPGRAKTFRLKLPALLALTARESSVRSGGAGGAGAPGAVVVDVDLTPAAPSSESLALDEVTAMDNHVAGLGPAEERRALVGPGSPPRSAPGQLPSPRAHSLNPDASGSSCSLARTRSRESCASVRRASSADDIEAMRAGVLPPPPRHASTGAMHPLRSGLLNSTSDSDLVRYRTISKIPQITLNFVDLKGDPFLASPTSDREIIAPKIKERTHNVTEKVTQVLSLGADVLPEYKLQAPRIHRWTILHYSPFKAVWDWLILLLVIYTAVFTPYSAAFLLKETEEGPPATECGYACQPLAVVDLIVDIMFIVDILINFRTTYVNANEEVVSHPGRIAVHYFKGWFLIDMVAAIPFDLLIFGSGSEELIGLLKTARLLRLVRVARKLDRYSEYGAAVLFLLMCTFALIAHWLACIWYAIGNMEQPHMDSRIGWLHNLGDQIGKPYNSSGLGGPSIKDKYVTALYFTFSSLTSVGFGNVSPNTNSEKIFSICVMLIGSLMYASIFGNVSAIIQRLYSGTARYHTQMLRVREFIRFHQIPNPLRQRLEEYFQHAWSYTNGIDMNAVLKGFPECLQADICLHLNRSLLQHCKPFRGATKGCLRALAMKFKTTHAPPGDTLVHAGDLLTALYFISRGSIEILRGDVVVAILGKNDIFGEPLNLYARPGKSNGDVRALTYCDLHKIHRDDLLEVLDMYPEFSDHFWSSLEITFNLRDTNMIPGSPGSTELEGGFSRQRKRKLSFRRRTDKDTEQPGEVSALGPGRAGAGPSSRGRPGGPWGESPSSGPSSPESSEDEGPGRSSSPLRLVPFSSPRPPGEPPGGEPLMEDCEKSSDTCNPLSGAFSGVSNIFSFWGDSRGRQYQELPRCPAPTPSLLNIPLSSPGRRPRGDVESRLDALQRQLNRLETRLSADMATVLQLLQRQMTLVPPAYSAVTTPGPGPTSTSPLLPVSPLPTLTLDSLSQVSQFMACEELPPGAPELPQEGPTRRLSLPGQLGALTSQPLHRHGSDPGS
row,SMILES,"hERG current change (%, negative = inhibition) at 1uM"
1,CC(=O)NC(NC(C)=O)c1cccc(OCc2ccccc2)c1,9.62%
2,Cc1cccc(/N=C/c2ccccn2)n1,3.77%
3,COc1ccc(CNC(=O)CNC(=O)CNS(=O)(=O)c2ccc(C)c(C)c2)cc1,13.8%
4,O=C(NNC(=O)c1ccc(-c2ccccc2)cc1)Nc1ccc(F)cc1F,12.7%
5,CCc1ccc(NC(=O)c2cc(-c3ccc(OC)cc3)on2)cc1,-0.549%
6,O=C(NCc1cccc(C(F)(F)F)c1)c1cccc(S(=O)(=O)N2CCN(Cc3ccccc3)CC2)c1,9.95%
7,CC(C)CC1NC(=O)N(CC(=O)Nc2ccccc2-c2ccccc2)C1=O (stereo not shown),-16.9%
8,COc1ccc(C2c3c(-c4cc(Cl)c(C)cc4O)n[nH]c3C(=O)N2Cc2cccnc2)cc1OC (stereo not shown),14.6%
9,Cc1cccc(NC(=O)COC(=O)c2ccccn2)c1,15.4%
10,CCOC(=O)C1=NOC(C(=O)NN(C)c2ncc(C(F)(F)F)cc2Cl)C1 (stereo not shown),8.26%
11,CN1CCN(C(=O)C2=C[C@@H](c3ccccc3)C[C@@H](OCc3ccc(CO)cc3)O2)CC1,13.5%
12,CN(C)c1ccc(/C=N/NC(=O)C[n+]2ccccc2)cc1.[Cl-],16.5%
13,Cc1nn(CC(=O)N2CCCC2)c(=O)c2nn(-c3ccccc3)c(C)c12,13.5%
14,CCC(=O)Nc1ccc(N2CCN(C(=O)c3cccs3)CC2)cc1,3.02%
15,COc1cc(OC)c(C2=NOC(C(=O)N3CCN(C(=O)c4ccco4)CC3)C2)cc1Cl (stereo not shown),-12.8%
16,O=C(O)C1C2C=CC(C2)C1C(=O)NCCc1ccccc1 (stereo not shown),8.19%
17,COc1cc(-c2cccs2)cc(=O)c2c(C)oc(C)c12,-2.79%
18,O=C(COC(=O)c1cccnc1SC(F)F)NC1CC1,7.92%
19,COc1cc2c(cc1NC(=O)c1cccc(Br)c1)CCCC2,-0.718%
20,O=C(Nc1ccc(Oc2ccc3ccccc3c2)cc1)c1ccco1,7.79%

row,SMILES,"hERG current change (%, negative = inhibition) at 1uM"
1,O=C(Nc1ccc2nc(-c3ccco3)c(-c3ccco3)nc2c1)N1CCN(c2ccccn2)CC1,4.97%
2,COc1ccc(NC(=O)COC(=O)CCNS(=O)(=O)c2ccc(Cl)cc2)cc1,3.54%
3,Cc1ccc(/C=N\Nc2nc3ccc(Cl)cc3[nH]2)o1,3.42%
4,CC(C)Sc1cc(Cl)nc(NC(=O)Nc2ccccc2)n1,17.4%
5,COc1ccc(NC(=O)NNC(=O)C(C)Oc2ccc3ccccc3c2)cc1 (stereo not shown),11.6%
6,CSc1ccccc1C(=O)NCCS(=O)(=O)N1CCN(c2ccc(F)cc2)CC1,-16%
7,O=C(Cc1cc(=O)[nH][nH]1)N/N=C/c1cccc2ccccc12,9.77%
8,CCCNc1nc2c(c(=O)[nH]c(=O)n2C)n1Cc1cccc(Br)c1,8.17%
9,O=C1C2CCCN2c2ccc(S(=O)(=O)N3CCOCC3)cc2N1Cc1ccccc1F (stereo not shown),17.3%
10,Cc1ccc(OCCNC(=O)CNC(=O)c2ccc(C)c(C)c2)cc1,4.24%
11,CC(C(=O)O)n1ncc2ccccc2c1=O (stereo not shown),9.08%
12,CN(c1ccccc1)S(=O)(=O)c1ccc(C(=O)Nc2nnc(C3CC3)s2)cc1,8.07%
13,Cc1nnc(SCC(=O)NC2CCCCC2)s1,11.3%
14,Cc1ccc(NC(=O)COC(=O)Cc2csc(-c3cccc(F)c3)n2)cc1C,-7.18%
15,CCC(CC)C(=O)Nc1ccccc1-n1cccc1,8.16%
16,Cc1ccc(Cl)cc1NC(=O)c1ccc(Cn2cc(Cl)cn2)cc1,15.8%
17,CCOC(=O)c1sc2ncn(/N=C/N(C)C)c(=O)c2c1C,10.3%
18,CC12CCC(O)CC1=CCC1C2CCC2(C)C1CCC21CCC(=O)O1 (stereo not shown),8.84%
19,CN(c1ccccn1)c1ncnc2[nH]ncc12,6.34%
20,O=C(NC1=NCCS1)[C@H](Cc1ccccc1)N1C(=O)c2ccccc2C1=O,15.9%

row,SMILES,"hERG current change (%, negative = inhibition) at 1uM"
1,Cc1ccc(OC(=O)COc2ccccc2C)c(-n2nc3ccccc3n2)c1,-2.47%
2,CCOC(=O)C1CCN(S(=O)(=O)c2ccc(-n3cnnn3)c(C)c2)CC1,7.04%
3,COc1cc(C(=O)Nc2cccc(C(C)=O)c2)cc(OC)c1OC,7.4%
4,O=Cc1cccn1-c1ccc(O)cc1,19.5%
5,CCOc1ccc(C2CC(c3ccc(OC)cc3)n3ncnc3N2)cc1 (stereo not shown),7.93%
6,COc1ccccc1N1CCN(C(=O)c2sc3nc(-c4ccc(F)cc4)cn3c2C)CC1,5.83%
7,Cc1ccc2nc(C)c(C(=O)N/N=C/c3ccco3)cc2c1,6.29%
8,CC(=O)c1cccc(NC(=O)C2CCCN(S(=O)(=O)c3cccc4cccnc34)C2)c1 (stereo not shown),11.7%
9,CCc1ccc(OCC(=O)N2CC(C(=O)OC)Oc3ccccc32)cc1 (stereo not shown),5.17%
10,Cl.c1ccc(C2NCCc3ccccc32)cc1 (stereo not shown),-6.77%
11,CNC(=O)Nc1ccccc1F,8.25%
12,CC1(C)Cc2c(sc(NC(=O)c3ccco3)c2C#N)CO1,-0.942%
13,CC1(C)CC2(CCO1)OC(=O)CC2C(=O)NCCc1ccccc1 (stereo not shown),22.2%
14,O=C(NC(=S)Nc1ncccn1)c1ccc(F)cc1,14.7%
15,Cc1c(Br)c(C(F)(F)F)nn1CC(=O)N(C)C1CCCCC1,10.6%
16,CN(c1ccccc1)S(=O)(=O)c1ccc(NC(=O)C2CCCCC2C(=O)O)cc1 (stereo not shown),13.1%
17,CCc1ccccc1NC(=O)c1cnn(-c2ccccc2)c1C,5.93%
18,CC(=O)N1CCN(C(=O)c2cc(S(=O)(=O)NCc3ccccc3)ccc2C)CC1,12.3%
